In all, about 310,000 compounds went through this assay and about 14,000 (4.5%) showed an effect of 50% or more. The effect is printed as a negative number. The list shows a part of the results.
Biological target: human ether-à-go-go-related gene (hERG) potassium channel (human, UniProt Q12809)
Assay: primary screen, population patch clamp on CHO cells stably expressing hERG
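Also: peak tail current of the secondary pulse compared with the same well before compound.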

Chain of human ether-à-go-go-related gene (hERG) potassium channel (Q12809 whole entry, looked up): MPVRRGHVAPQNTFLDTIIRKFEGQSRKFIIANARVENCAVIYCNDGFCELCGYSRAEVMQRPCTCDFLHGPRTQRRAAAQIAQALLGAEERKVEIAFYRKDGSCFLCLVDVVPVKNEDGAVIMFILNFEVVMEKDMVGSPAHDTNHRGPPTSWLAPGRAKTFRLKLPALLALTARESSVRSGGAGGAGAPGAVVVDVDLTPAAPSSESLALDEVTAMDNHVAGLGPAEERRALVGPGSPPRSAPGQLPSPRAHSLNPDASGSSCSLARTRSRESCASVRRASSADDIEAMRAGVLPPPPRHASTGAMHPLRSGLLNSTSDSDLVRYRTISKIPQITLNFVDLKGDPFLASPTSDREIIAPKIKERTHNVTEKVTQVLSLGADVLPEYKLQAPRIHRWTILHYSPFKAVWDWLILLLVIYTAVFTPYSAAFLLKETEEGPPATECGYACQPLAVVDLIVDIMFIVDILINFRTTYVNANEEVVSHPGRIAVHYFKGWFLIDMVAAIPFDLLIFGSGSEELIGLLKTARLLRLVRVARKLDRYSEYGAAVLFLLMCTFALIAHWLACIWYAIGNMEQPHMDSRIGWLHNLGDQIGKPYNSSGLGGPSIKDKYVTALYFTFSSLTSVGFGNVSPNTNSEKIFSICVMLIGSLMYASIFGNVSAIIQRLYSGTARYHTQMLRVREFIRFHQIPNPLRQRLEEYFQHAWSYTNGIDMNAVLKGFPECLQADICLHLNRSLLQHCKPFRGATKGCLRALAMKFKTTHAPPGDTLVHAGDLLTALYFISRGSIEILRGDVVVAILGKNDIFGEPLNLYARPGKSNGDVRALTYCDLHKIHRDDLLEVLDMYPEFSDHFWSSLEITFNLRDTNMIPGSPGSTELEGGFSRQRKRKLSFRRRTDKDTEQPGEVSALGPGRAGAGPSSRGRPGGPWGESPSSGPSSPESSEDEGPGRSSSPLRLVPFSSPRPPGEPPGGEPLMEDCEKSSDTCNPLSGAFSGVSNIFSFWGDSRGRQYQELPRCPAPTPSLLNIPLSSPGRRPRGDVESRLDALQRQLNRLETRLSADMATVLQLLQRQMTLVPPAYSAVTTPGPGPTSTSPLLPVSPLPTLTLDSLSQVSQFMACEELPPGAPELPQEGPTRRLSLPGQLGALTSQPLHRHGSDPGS

Row | Structure (SMILES) | hERG current change (%, negative = inhibition) at 10uM [%]
1 | CN(C)CCCN(Cc1cc2cc3c(cc2[nH]c1=O)OCO3)C(=S)NCc1ccco1 | -19.2
2 | CCC(=NCCCN1CCOCC1)c1c(O)n(Cc2ccccc2)c(=O)[nH]c1=O | -40.3
3 | CC(C)CC(=O)NC(=S)NCCc1ccccc1 | -7.46
4 | CCNc1nc(NCC)nc(Oc2ccc(N)cc2)n1 | -2.38
5 | O=[N+]([O-])c1ccccc1S(=O)(=O)N1CCCCC1 | 1.38
6 | Cc1cccc(CN2CCc3c([nH]c4ccccc34)C2)c1 | -33.4
7 | COc1ccc(OC)c(N2C(N)=C(C#N)C(c3ccc(OC)c(O)c3)C3=C2CC(C)(C)CC3=O)c1 (stereo not shown) | 2.66
8 | O=C(/C=C/c1cccc(F)c1)NC1CCN(Cc2ccccc2)CC1 | -70.6
9 | CCCc1ccc2oc(C(=O)N3CCC(N4CCCC(O)C4)CC3)c(C)c2c1 (stereo not shown) | -36.3
10 | CCOC(=O)Cc1csc(NC(=O)C2C3C=CC(C3)C2C(=O)O)n1 (stereo not shown) | 5.58
11 | Cc1ccc(C2=N/C(=C\c3cccc(F)c3)C(=O)O2)cc1 | 16.5
12 | COc1cc(C#N)ccc1OC(=O)c1cccc(S(=O)(=O)N2CCN(C)CC2)c1 | -36
13 | CN(C(=O)COC(=O)c1cc(F)c(F)cc1Cl)c1ccccc1 | 0.987
14 | COc1ccc(CCC(=O)Nc2ccc(S(=O)(=O)N3CCOCC3)cc2)cc1 | -4.24
15 | COc1ccccc1CNS(=O)(=O)c1ccc(-n2cnnn2)c(OC)c1 | -27.7
16 | CC(/C=N/Nc1ncc(C)c(=O)[nH]1)=C\c1ccccc1 | -53
17 | N#Cc1ccc(/C=C2\CCCCn3c2nc2cc(C(=O)O)ccc2c3=O)cc1 | 21.8
18 | Cc1ccc(C(NC(=O)N2CCCC2)C(Cl)(Cl)Cl)cc1F (stereo not shown) | 19.1
19 | Cc1onc(C(=O)Nc2cccc(C(F)(F)F)c2)c1[N+](=O)[O-] | -5.76
20 | CCOc1ccc(CN(C)C(=O)CNC(=O)C2CCCCC2)cc1OC | 8.89
21 | Cc1onc(-c2ccccc2)c1-c1ccnc(N)n1 | -2.21
22 | COc1ccc(NC(=O)CCC(=O)Nc2cc(OC)c(NC(=O)c3cccs3)cc2OC)cc1 | -5.28
23 | CCN(CC)/C(=N/O)NC(=O)NS(=O)(=O)c1ccc(C)cc1 | 15.3
24 | CN(C)CCSCc1nnc2n1-c1ccc(Cl)cc1C(c1ccccc1Cl)=NC2.c1ccccc1 | -73.7
25 | CCC1=Nc2cc(C(=O)NCC3CCCO3)ccc2Sc2ccc(Br)cc21 (stereo not shown) | -3.69
26 | Cc1cc(-c2nnc(-c3cc4ccccc4oc3=O)o2)c(C)n1-c1ccccc1 | -1.1
27 | CC(C)CCCN1C(Nc2ccccc2)=NC[C@@H]1Cc1ccccc1 | -62.3
28 | CCN(CC(=O)Nc1ccc(OC)cc1)C(=O)c1ccc([N+](=O)[O-])cc1 | -19.6

Row | Structure (SMILES) | hERG current change (%, negative = inhibition) at 10uM [%]
29 | Cc1ccc(CNC(=O)C2(C)Oc3ccccc3NC2=O)cc1 (stereo not shown) | -4.26
30 | CCN(CC(=O)NC(=O)NC1CCCC1)Cc1ccccc1 | 3.93
31 | Cc1cc(C)nc(Nc2ccc(N3CCOCC3)cc2)n1 | -5.99
32 | Cc1cc(C)c(S(=O)(=O)N2CCOC2CNC(=O)C(=O)NCCCN2CCCC2=O)c(C)c1 (stereo not shown) | 17.5
33 | O=[N+]([O-])c1ccc2nc(-c3ccc(OC(F)F)cc3)cn2c1 | -46
34 | CC1(C)OC(C)(C)/C(=C\c2ccc(OCC(N)=O)cc2)C1=O | -3.7
35 | O=C(O)c1ccc(/C=N/Nc2ccc(S(=O)(=O)N3CCCC3)cc2[N+](=O)[O-])cc1 | 9.45
36 | CCCCn1c(CN2CCN(c3ccc(F)cc3)CC2)nc2c1c(=O)n(C)c(=O)n2C | -25
37 | CSCCCNC(=S)N1CCc2ccccc2C1 | 9.78
38 | O=C(N/N=C/c1ccc(OC(=O)c2cccc(F)c2)cc1)c1cccnc1 | -69.6
39 | Cc1cc(C)nc(OC(C(=O)O)C(OCc2ccccc2)(c2ccccc2)c2ccccc2)n1 (stereo not shown) | 21.7
40 | O=C(NC1=NCCS1)C1Cc2ccccc2CN1C(=O)c1ccccc1 (stereo not shown) | -4.49
41 | CCn1cc(C(=O)N[C@H](C(=O)NCCCn2ccnc2)C(C)C)c(=O)c2cc3c(cc21)OCO3 | 1.82
42 | Cc1c(C(=O)Nc2ccc(F)cc2)cn2c(nc3ccccc32)c1C#N | -1.75
43 | CC1(C)C2CCC(C2)C1(C)NC(=O)CN1CCCC1.Cl (stereo not shown) | -0.213
44 | CCCn1c(=O)[nH]c(=O)c2c1nc(-c1cc([N+](=O)[O-])ccc1Cl)n2CCOC | -16.8
45 | O=S(=O)(c1ccc(Cl)c(S(=O)(=O)N2CCCC2)c1)N1CCCC1 | 1.54
46 | COc1ccc(/C=C(\NC(=O)/C=C/c2ccco2)C(=O)NCCc2nc3ccccc3[nH]2)cc1 | -56.6
47 | O=C(CSc1nnc(-c2ccco2)n1-c1ccccc1Cl)Nc1cccc(C(=O)O)c1 | 14.7
48 | N#Cc1ccsc1NC(=O)c1ccc(Cl)c([N+](=O)[O-])c1 | 21
49 | O=C(Nc1cc(C(F)(F)F)ccc1Cl)c1ccc(NC(=O)C(F)(F)F)cc1 | 0.159
50 | N#Cc1ccc(COc2ccc(CCO)cc2-n2nc3ccccc3n2)cc1 | -66.6
51 | O=C(Nc1ccc(N2CCOCC2)cc1)c1c(F)cccc1Cl | -1.56
52 | C/C(=N/NC(=O)CNC(=O)c1cccs1)c1ccc(Cl)cc1 | 17.5
53 | C[C@]12CCC(=O)C(O)=C1CC[C@@H]1[C@@H]2CC[C@]2(C)C(=O)CC[C@@H]12 | -15.6
54 | CC(C)n1c2ccccc2c2nc3ccccc3nc21 | 1.08
55 | O=C(O)CN1CCN(Cc2ccccc2F)C1=O | 24.7
